What was measured:
bovine serum albumin [1] = target: T1, bovine serum albumin (bovine, UniProt P02769); experiment: ELISA, phage antibody on coated 1% BSA, anti-M13 peroxidase, OD 492 nm
T1 construct: Negative control antigen in the non-specific reactivity ELISA; also called BSA; BSA (1%)
Experimental: (§1) To test for non-specific reactivity against non-bacterial antigens an ELISA assay was used. The complex antigens 5% FBS, 2% ELK and 1% BSA were coated overnight to Maxisorp™ ELISA plates. Selected single-chain phage antibodies were incubated for 15 minutes in an equal volume of PBS containing 1% BSA to obtain blocked phage antibodies. The plates were emptied, and the blocked single-chain phage antibodies were added to the wells. Incubation was allowed to proceed for two hours at room temperature, the plates were washed in PBS containing 0.1% v/v Tween-20 and bound phage antibodies were detected by means of OD 492 nm measurement using an anti-M13 antibody conjugated to peroxidase. As a control, the procedure was performed simultaneously without single-chain phage antibody, with a negative control single-chain phage antibody directed against West Nile virus envelope protein (SC04-374).

bovine serum albumin [2] = target: T1, bovine serum albumin; experiment: ELISA, phage antibody on coated 1% BSA, anti-M13 peroxidase
T1 sequence (P02769 25-607 limits assumed): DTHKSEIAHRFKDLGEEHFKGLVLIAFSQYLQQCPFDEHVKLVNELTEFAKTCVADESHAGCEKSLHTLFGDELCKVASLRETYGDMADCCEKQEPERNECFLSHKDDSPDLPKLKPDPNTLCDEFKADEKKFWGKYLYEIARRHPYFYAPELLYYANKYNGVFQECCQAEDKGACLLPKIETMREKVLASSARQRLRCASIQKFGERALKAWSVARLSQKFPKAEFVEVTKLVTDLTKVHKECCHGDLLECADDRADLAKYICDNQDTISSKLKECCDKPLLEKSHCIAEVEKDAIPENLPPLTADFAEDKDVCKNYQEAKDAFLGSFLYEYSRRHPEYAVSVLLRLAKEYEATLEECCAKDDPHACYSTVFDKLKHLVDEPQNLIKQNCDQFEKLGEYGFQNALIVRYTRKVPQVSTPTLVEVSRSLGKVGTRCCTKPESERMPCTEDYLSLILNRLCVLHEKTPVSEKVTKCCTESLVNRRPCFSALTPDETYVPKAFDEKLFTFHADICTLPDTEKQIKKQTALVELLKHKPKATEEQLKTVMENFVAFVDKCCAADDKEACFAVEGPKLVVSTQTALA
Experimental: as §1

B1: single-chain phage antibody SC05-132 (scFv)
scFv: EVLESGGGLVQPGGSLRLSCSDSGFSFNNYWMTWVRQAPGKGLEWVANINRDGSDKYHVDSVEGRFTISRDNSKNSLYLQMNNLRADDAAVYFCARGGRTTSWYWRNWGQGTLVTVSSGTGGSGGTGSGTGGST[letters of about 100 residues not shown]GGGTKLEIKR
notes: also called scFv SC05-132
Q: What does the source list for B1?
A: binding result (bovine serum albumin [1]): no binding; ELISA (OD492 nm) (bovine serum albumin [2]): 0.04 OD492 nm

Source: patent US20090104204A1 (CRUCELL HOLLAND B V, published 2009)
